Measurements taken from PubChem BioAssay AID1347417 (National Center for Advancing Translational Sciences (NCATS), 2020).
Hit rate of the full screen: of about 120,000 compounds, about 5,300 (4.4%) were called active. A call without a number means that no potency is given here. Inconclusive results, whose numbers are uncertain, are shown with a selection of clear calls. Calls follow the shape of the dose curve; as a rule, active = well fitted inhibition curve with a large enough effect; inconclusive = small, poorly fitted or top-dose-only effect; inactive = no such curve, though single readings can be large or run the other way. A potency beside an inconclusive call is a rough fit, not a confirmed value.
Potency is read from the fitted curve at half-maximal effect; tags tell the direction and shape of the fitted curve.

Test: qHTS Primary assay for Inhibitors of Plasmodium falciparum Dd2 growth in vitro; also: nearly all actives have a fitted effect of over 65% in size
Details: P. falciparum Dd2 growth, SYBR Green, 72 h; series mostly up to 28.9 µM
Summary of the method: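 Infected erythrocytes (Dd2, 0.3% parasitemia, 2.5% hematocrit final) are added to compound in RPMI-1640/Albumax II medium, grown 72 h at 37C in low oxygen, then lysed with saponin/Triton-X containing SYBR Green and read by fluorescence.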
In the case of `COc1ccc(CN2CCCC(c3nn(-c4ccc(OC)cc4)c(=O)[nH]3)C2)cc1` (stereo unspecified), the Potency was “inactive”.
For `COc1cccc(CC(=O)N2C[C@@H](CO)[C@H](c3ccccn3)C2)c1`, the Potency was “inactive”.
In the case of `CC(C)(C)C(=O)N1CCC2(CNS(=O)(=O)c3cnccc3O2)C1` (stereo unspecified), the Potency was “inactive”.
In the case of `COc1ccc(NC(=O)CCn2nc(-c3ccccc3OC)c3c(C)cc(C)nc32)cc1`, the Potency was inconclusive: 12.6 µM [inhibitor, single point].
For `COc1ccc(NC(=O)N2CCc3c(C(=O)N(C)C)cccc32)cc1`, the Potency was “inactive”.
With `COCCN1C(=O)CC[C@]2(C(=O)NCc3cccc(OC)c3OC)CCCC[C@@H]12` the Potency was inconclusive: 17.8 µM [inhibitor, single point].
With `COc1ccccc1CNC(=O)[C@@H]1Cc2c[nH]c3cccc(c23)[C@H](CC(C)C)N1` the Potency was inconclusive: 11.2 µM [inhibitor, single point].
For `CC(C)C[C@@H]1N[C@H](C(=O)NCCN(C)C)Cc2cn(Cc3ccncc3)c3cccc1c23`, the Potency was active: 12.6 µM.
For `Cc1cn2nc(C(=O)N3CCC(NC(=O)c4cccc(N(C)C)c4)CC3)cc2c(=O)[nH]1`, the Potency was “inactive”.
In the case of `CCOc1ccccc1NC(=O)C(C)Sc1nc(-c2ccccc2)c(C#N)c(=O)[nH]1` (stereo unspecified), the Potency was inconclusive: 11.2 µM [inhibitor, single point].
For `Cc1ccc(CNC(=O)C2CCc3sc(C(=O)N4CCOCC4)cc3C2)o1` (stereo unspecified), the Potency was “inactive”.
With `COc1ccc(NC(=O)c2ccc3c(c2)C2(CCN(C)C2)CN3Cc2ccccc2)cc1` (stereo unspecified) the Potency was inconclusive: 5.62 µM [inhibitor, partial curve, poor fit].
With `COc1ccc(CNC(=O)c2noc(-c3ccc(C)cc3)n2)cc1OC` the Potency was “inactive”.
In the case of `COc1ccccc1NC(=O)c1oc2ccccc2c1NC(=O)c1ccccc1C(F)(F)F`, the Potency was inconclusive: 17.8 µM [inhibitor, single point].
For `Cc1cccc(NC(=O)c2sc3nc4c(cc3c2N)CN(Cc2ccccc2)CC4)c1`, the Potency was inconclusive: 12.6 µM [inhibitor, single point].
For `COc1cccc(S(=O)(=O)N2CCC3(CC2)CC(CC(=O)N2CCCC2)CCO3)c1` (stereo unspecified), the Potency was “inactive”.
With `OC(c1ccccc1)c1nc(Nc2ccc(C(F)(F)F)cc2)n[nH]1` (stereo unspecified) the Potency was inconclusive: 10 µM [inhibitor, partial curve].
With `O=C(c1ccc(-c2ccc(O)cc2)cc1)N1CCOC2(CNCCOC2)C1` (stereo unspecified) the Potency was “inactive”.
With `Cc1ccc(-c2ccc3nnc(CNC(=O)CSc4ccncc4)n3n2)cc1` the Potency was “inactive”.
For `CN1CCc2[nH]nc(C(=O)N[C@H](c3ccccn3)C3CC(O)C3)c2C1` (stereo partly specified), the Potency was “inactive”.
With `CCOc1ccc(Sc2cc(C(=O)NC(C)CC)c3ccccc3n2)cc1` (stereo unspecified) the Potency was inconclusive: 17.8 µM [inhibitor, single point].
